# Measurements reported in PMC4336329 (PLoS ONE, 2015).
# About 2,200 (0.71%) of roughly 310,000 compounds showed an effect of 50% or more. The effect is printed as a negative number. The list shows a part of the results.
# Target: human ether-à-go-go-related gene (hERG) potassium channel (human, UniProt Q12809)
# Test: primary screen, population patch clamp on CHO cells stably expressing hERG
# human ether-à-go-go-related gene (hERG) potassium channel, sequence (Q12809 whole entry, looked up): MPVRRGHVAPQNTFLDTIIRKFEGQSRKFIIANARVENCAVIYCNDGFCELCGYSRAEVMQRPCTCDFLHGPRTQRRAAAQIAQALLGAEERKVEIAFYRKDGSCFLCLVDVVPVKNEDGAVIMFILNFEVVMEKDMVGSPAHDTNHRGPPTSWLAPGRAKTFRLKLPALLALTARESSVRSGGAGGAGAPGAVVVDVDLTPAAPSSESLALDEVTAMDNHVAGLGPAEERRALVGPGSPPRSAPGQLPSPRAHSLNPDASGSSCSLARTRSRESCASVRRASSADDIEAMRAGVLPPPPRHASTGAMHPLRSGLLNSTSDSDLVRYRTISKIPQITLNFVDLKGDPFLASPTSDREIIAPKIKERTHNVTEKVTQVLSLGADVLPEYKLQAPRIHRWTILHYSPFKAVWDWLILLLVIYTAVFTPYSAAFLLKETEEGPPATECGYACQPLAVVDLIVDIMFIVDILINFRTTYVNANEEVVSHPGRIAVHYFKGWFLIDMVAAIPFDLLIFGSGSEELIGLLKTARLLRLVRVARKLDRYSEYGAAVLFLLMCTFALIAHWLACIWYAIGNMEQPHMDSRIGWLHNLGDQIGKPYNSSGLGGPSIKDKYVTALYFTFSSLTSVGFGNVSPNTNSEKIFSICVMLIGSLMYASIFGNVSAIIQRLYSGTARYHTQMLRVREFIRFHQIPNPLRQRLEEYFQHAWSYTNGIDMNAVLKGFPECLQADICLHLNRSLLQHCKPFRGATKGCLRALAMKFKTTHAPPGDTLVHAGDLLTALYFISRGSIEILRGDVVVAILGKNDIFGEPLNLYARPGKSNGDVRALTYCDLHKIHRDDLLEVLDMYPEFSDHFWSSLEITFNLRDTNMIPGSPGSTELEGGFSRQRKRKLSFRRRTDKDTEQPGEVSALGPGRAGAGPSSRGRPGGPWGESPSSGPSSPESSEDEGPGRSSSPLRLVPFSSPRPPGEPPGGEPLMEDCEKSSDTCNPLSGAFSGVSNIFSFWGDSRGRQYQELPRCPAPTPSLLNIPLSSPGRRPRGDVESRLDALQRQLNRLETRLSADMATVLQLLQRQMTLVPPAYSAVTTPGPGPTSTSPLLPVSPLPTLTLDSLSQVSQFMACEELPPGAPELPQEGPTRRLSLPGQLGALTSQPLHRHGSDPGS
row,SMILES,"hERG current change (%, negative = inhibition) at 1uM"
1,CCn1nccc1C(=O)Nc1cccc(C)c1C,10.9%
2,CC(=O)Nc1ccccc1C(=O)C(=O)NCCc1ccccc1,0.193%
3,Cc1c(Cl)ccc2c(C(=O)NC(C)c3ccncc3)cc(-c3ccncc3)nc12 (stereo not drawn),-8.77%
4,CCC(C)NC(=O)CN(c1ccc(OC)cc1)S(=O)(=O)c1ccccc1 (stereo not drawn),17.8%
5,Cc1cccc(NC(=O)Cn2c(C)c(C#N)c3ccccc32)c1C,12%
6,CCOc1ccc2c(c1)nc(NCCCO)n2Cc1ccccc1,-0.641%
7,CC1=C(C(=O)OCc2ccccc2)C(c2ccc([N+](=O)[O-])cc2)NC(=O)N1CCCC(=O)O (stereo not drawn),10.8%
8,Cc1nn(C)c(C)c1S(=O)(=O)N1CCCC(C(=O)NCC2COc3ccccc3O2)C1 (stereo not drawn),4.83%
9,COc1cc2c(c(OC)c1OC)-c1c(cc3c(c1OC)OCO3)C[C@H](C)[C@@](C)(O)C2,17.5%
10,O=C1CCCCCCCN1Cc1ccccc1,15.9%
11,C=CCn1cc(C(=O)NCC2CCCO2)c(=O)c2cc(S(=O)(=O)N3CCCCCC3)ccc21 (stereo not drawn),-4.58%
12,Cc1csc(NC(=O)CSc2nnc(-c3ccncc3)o2)n1,11.1%
13,CC(C)NCc1nnc(-c2ccccc2Cl)o1,14%
14,CCCNC(=O)COc1coc(CN2CCN(c3ccccc3OC)CC2)cc1=O,-1.03%
15,Cc1ccc(-c2csc3ncnc(N4CCc5ccccc5C4)c23)cc1,9.72%
16,Cc1cc(C)nc(NS(=O)(=O)c2ccc(CC(C)C)cc2)c1,6.26%
17,Cc1nn(S(=O)(=O)c2cccc([N+](=O)[O-])c2)c(C)c1Br,15.4%
18,CCOC(=O)C1(CCOc2ccccc2)CCN(Cc2ccncc2)CC1,-23.5%
19,Cc1ccc(CN2CCN(Cc3cccc(-n4cccn4)c3)CC2CCO)cc1 (stereo not drawn),-80.1%

row,SMILES,"hERG current change (%, negative = inhibition) at 1uM"
1,Cc1nn(CC(=O)NCc2ccccc2)c(=O)c2cccn12,7.1%
2,O=C(CSc1ncnc2c1nnn2-c1ccc(F)cc1)NCC1CCCO1 (stereo not drawn),9.34%
3,Cc1cc(NC(=O)CS(=O)CC(=O)Nc2c(C)cccc2C)ccc1-n1cnnn1 (stereo not drawn),3.63%
4,CCN(CC)S(=O)(=O)c1ccc(OC)c(NC(=O)c2ccc([N+](=O)[O-])cc2)c1,-21.9%
5,CCOc1ccc(-c2c(C(=O)N/N=C(\C)c3ccco3)nnn2-c2nonc2N)cc1,17.1%
6,COc1ccc(CCNC(=O)c2cnc3ccccn3c2=O)cc1,-1.13%
7,Cc1ccc(NC(=O)COC(=O)CCNS(=O)(=O)c2ccc(C)c(C)c2)cc1,7.91%
8,CC1=CC(c2ccccc2)NC(=S)N1 (stereo not drawn),8.58%
9,CN1CCN(C(=O)COc2ccc(N(C)S(=O)(=O)c3ccc(F)cc3)cc2)CC1,3.8%
10,O=S(=O)(NCc1cc(-c2ccccc2)no1)c1ccc(Cl)cc1,13.4%
11,Cc1cc(NC(=O)/C=C/c2cccc(Cl)c2)n(-c2nc3ccccc3[nH]2)n1,13.4%
12,N#CC1(C#N)C(C(=O)C23CC4CC(CC(C4)C2)C3)C12CCOCC2 (stereo not drawn),6.44%
13,CC(=O)N1CCN(CCS(=O)(=O)c2ccc(Br)cc2)CC1,13%
14,O=C(CCS(=O)(=O)c1ccccc1)OCc1ccc([N+](=O)[O-])cc1,-1.18%
15,COCCN1CCC(CNCc2c(C(=O)N3CCCCC3)nc3c(C)cccn23)C1 (stereo not drawn),2.68%
16,Cc1cc(C)c(C(=O)Nc2ccc(S(=O)(=O)Nc3ccccn3)cc2)c(C)c1,11.2%
17,Cc1ccc(S(=O)(=O)N2CCN(Cc3ccsc3)CC2)cc1,5.13%
18,CCNC(=O)COc1ccc(CC)cc1,8.49%
19,c1ccc(OCc2nn3c(Cn4cnc5ccccc54)nnc3s2)cc1,6.01%

row,SMILES,"hERG current change (%, negative = inhibition) at 1uM"
1,COc1ccc(CCN(C)S(=O)(=O)c2ccc(Cl)nc2)cc1OC,0.0341%
2,COc1ccc(C(=O)NC(Oc2ccccc2)C(Cl)(Cl)Cl)cc1 (stereo not drawn),9.45%
3,CCc1ccc(N2CN=c3s/c(=C\c4ccccc4)c(=O)n3C2)cc1,13.3%
4,CC1CN(c2sc(S(C)(=O)=O)nc2S(=O)(=O)c2ccc(Cl)cc2)CC(C)O1 (stereo not drawn),16.2%
5,O=C(COC(=O)/C=C/c1ccccc1)NC1CCS(=O)(=O)C1 (stereo not drawn),5.3%
6,Cn1cc(CN2CCCC(C(=O)Nc3cccc(-c4cc5ccccc5[nH]4)c3)C2)cn1 (stereo not drawn),10.6%
7,O/N=C/c1cc(Br)ccc1OCc1ccccc1F,4.28%
8,CCN(C(=O)CSc1nc2cc(C(=O)O)ccc2c(=O)n1Cc1ccccc1)c1ccccc1,11.6%
9,O=C1/C(=C\c2ccc(Cl)c(Cl)c2)N2CCC1CC2,12.2%
10,COc1ccccc1OCCSc1nc2ccc([N+](=O)[O-])cc2s1,10.8%
11,O=C(CSc1ccccn1)N1CCCC(Nc2ccc(F)c(F)c2)C1 (stereo not drawn),12.3%
12,CSc1ccccc1C(=O)Nc1nc2ccccc2[nH]1,6.83%
13,N#Cc1ccccc1Cn1c(=O)oc2ccccc21,18.6%
14,Cc1cc2nccc(-c3ccc(F)cc3)n2n1,11.9%
15,COc1ccc(N(C(C)C(=O)N/N=C/c2ccc(OCC(C)C)cc2)S(C)(=O)=O)cc1 (stereo not drawn),13.9%
16,CCCCn1c(N)c(N(CC(C)C)C(=O)c2ccc(-c3ccc(Cl)cc3)o2)c(=O)[nH]c1=O,6.83%
17,O=C(NC(=S)Nc1ccccc1[N+](=O)[O-])c1cncc(Br)c1,15.7%
18,CCCCN(C)S(=O)(=O)c1c(C)[nH]c(=O)[nH]c1=O,12.8%
19,C#CCNC(=O)C1=C[C@@H](c2ccc(Br)cc2)C[C@@H](OCCCCO)O1,8.59%
